Measured values: the supplement of paper PMC10441789
The list shows a part of the results. Antibody binding of pooled human sera (four to six donors per pool; dilution not stated) to peptides of the Trypanosoma cruzi antigen TSSA on microarrays. Quantile-normalised fluorescence in arbitrary units, mean of duplicate arrays; higher = more binding. No active / inactive call. The uninfected pools are read here as the healthy donors of the same country. The strongest signals lie near the top of the scale (about 60,000).

Tests used:
Test in all cases: antibody binding signal (normalised fluorescence) (arbitrary fluorescence units); higher = stronger serum antibody binding to peptide
[1] = tested on: pooled sera of chronic Chagas disease patients, Argentina
Experimental: (§1)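 Microarray of 15-residue peptides over residues 30-55 of Trypanosoma cruzi TSSAII, each with 1 to 10 substitutions at naturally variable positions, probed with one serum pool per country.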

[2] = tested on: pooled sera of chronic Chagas disease patients, Bolivia
Experimental: as §1

[3] = tested on: pooled sera of chronic Chagas disease patients, Brazil
Experimental: as §1

[4] = tested on: pooled sera of chronic Chagas disease patients, Colombia
Experimental: as §1

[5] = tested on: pooled sera of chronic Chagas disease patients, Mexico
Experimental: as §1

[6] = tested on: pooled sera of chronic Chagas disease patients, USA
Experimental: as §1

[7] = tested on: pooled sera of uninfected people, Argentina
Experimental: as §1

[8] = tested on: pooled sera of uninfected people, Bolivia
Experimental: as §1

[9] = tested on: pooled sera of uninfected people, Brazil
Experimental: as §1

[10] = tested on: pooled sera of uninfected people, Mexico
Experimental: as §1

[11] = tested on: pooled sera of uninfected people, USA
Experimental: as §1

Sequence	antibody binding signal [1]	antibody binding signal [2]	antibody binding signal [3]	antibody binding signal [4]	antibody binding signal [5]	antibody binding signal [6]	antibody binding signal [7]	antibody binding signal [8]	antibody binding signal [9]	antibody binding signal [10]	antibody binding signal [11]
PPSGTEKKAAAGGAP	31300	932	13200	5420	3080	2890	1080	369	267	151	290
GTEKKTAAGETPSQP	394	1930	23800	451	644	2820	105	671	193	159	127
NKTAAGGTPSPSGAS	1630	280	5120	6170	780	1660	667	967	944	833	1330
KEKKTAAGGAPSQSG	215	278	234	2970	338	410	115	103	108	71.4	161
SGKDNKAATGGTPSP	892	440	724	1370	983	952	183	215	142	72.7	168
GTENKTATGGTPSPP	32900	1520	812	1020	1140	1280	310	390	240	381	155
GKENKAAAGGAPSPS	1650	612	3180	6680	4930	8410	392	85	118	101	124
KEKKTATGGAPSPSG	434	172	251	1180	316	328	205	146	90.1	122	99.5
KENKTATGETPSQSG	667	728	5490	719	297	6620	166	247	229	225	139
KEKKTATGEAPSQPG	7700	11500	29900	298	324	13500	177	82.1	117	117	132
TPPSGTDKKPATGGT	33400	4570	42100	5510	48800	4960	774	476	1000	3130	448
TEKKTATGGTPSPPG	1020	551	922	4140	893	1990	311	218	470	246	214
GKEKKAAAGEAPSQP	5970	2120	26600	4810	6230	10300	99.7	98	101	67	95.5
PSGKDKKPAAGGAPS	4930	799	3680	8890	7290	5640	114	250	108	80.8	96
PSGTDNKTAAGGAPS	10500	3180	43500	5490	1600	808	320	668	2070	433	352
SGKEKKPAAGGTPSQ	7330	1300	4800	5870	7330	5410	169	166	720	93.5	222
GTENKAAAGGAPSQS	36000	402	1950	3480	1230	800	184	415	182	158	247
GKDKKAATGETPSQP	2470	412	26500	3530	3700	9190	235	116	152	90.2	120
SGKDNKAAAGGTPSP	531	239	949	2430	1000	1700	140	187	414	83.2	107
ISTPPSGKDKKAAAG	7370	303	682	377	29900	636	160	262	112	105	121
SGKDNKAAAGETPSQ	772	323	7040	2020	1080	1660	182	370	136	115	117
DKKPATGEAPSQSGA	44900	49300	47300	163	210	42400	829	734	233	212	166
KENKTAAGGAPSPPG	209	227	238	3400	275	611	198	111	144	97.6	156
KDKKPATGGTPSPSG	357	301	144	647	233	306	153	82.2	208	74.4	97.8
DKKAATGGAPSPSGA	775	320	353	2300	948	1230	411	783	166	125	137

Sequence	antibody binding signal [1]	antibody binding signal [2]	antibody binding signal [3]	antibody binding signal [4]	antibody binding signal [5]	antibody binding signal [6]	antibody binding signal [7]	antibody binding signal [8]	antibody binding signal [9]	antibody binding signal [10]	antibody binding signal [11]
GTEKKAAAGGTPSQP	680	200	327	6270	616	1820	236	523	1270	434	150
SGTDKKAATGEAPSQ	24100	37100	31500	2280	493	24900	350	126	131	830	201
GTDKKPATGEAPSPP	44300	41400	46800	6060	507	38500	947	586	214	535	153
KDKKTATGGTPSPPG	307	319	189	1010	219	1170	172	75.3	104	116	85.2
ENKTATGGTPSPSGA	419	2810	846	601	420	782	328	181	499	248	184
KAATGETPSQSGASS	4970	5720	23100	182	135	9460	308	321	206	313	191
TDKKPAAGGAPSPSG	687	206	575	5890	377	839	178	918	307	135	207
GKDKKAATGGAPSQP	458	233	1400	651	1170	805	201	132	70.8	98.2	83.4
STPPSGTENKPAAGG	49800	50800	52800	411	6090	50800	8780	1570	865	1160	1160
GTDNKPATGGAPSPS	3970	19100	41600	1740	590	2470	248	1450	523	396	184
GTENKAAAGGAPSPS	36200	564	878	4260	798	1010	233	436	151	144	324
PSGKDNKPATGGAPS	3860	1330	8100	4260	3840	8090	881	1290	150	152	156
STPPSGKENKPATGG	49400	29200	28200	441	15800	15300	4270	2580	386	367	893
KDNKPAAGEAPSPPG	727	324	30200	390	145	14700	358	382	188	303	90.3
GTENKAAAGGTPSPS	38100	399	525	3490	697	1380	133	370	1530	193	141
STPPSGKDKKTATGE	23600	2250	3530	337	33800	1350	348	469	134	134	84.6
TENKPAAGETPSPPG	42600	655	20700	300	399	4630	161	407	194	156	905
GTEKKAAAGETPSQS	1190	432	2250	844	849	2980	113	819	205	166	135
TISTPPSGTENKTAA	50900	45800	51700	365	4320	25900	6840	826	703	579	905
DKKTAAGGAPSPSGA	587	749	191	7330	869	685	244	89.2	142	300	135
STPPSGTEKKTAAGG	36300	12700	29900	3650	26000	4580	936	272	168	133	250
SGKEKKPATGETPSP	30600	3050	21300	1610	3510	21000	323	417	126	617	496
SGKENKAAAGETPSP	4650	3240	20800	8510	5830	18500	8820	3460	145	573	621
TDKKTAAGETPSPSG	323	306	312	339	337	3000	125	195	352	388	1970
